In PubChem BioAssay AID485294 (National Center for Advancing Translational Sciences (NCATS), 2010):
The campaign covered roughly 370,000 compounds. About 150 (0.041%) were called active. Inconclusive results, whose numbers are uncertain, are shown with a selection of clear calls. Calls follow the shape of the dose curve; as a rule, active = well fitted inhibition curve with a large enough effect; inconclusive = small, poorly fitted or top-dose-only effect; inactive = flat fitted curve, though single readings scatter. No potency is given beside an inconclusive call; the fits are too rough.

target: Beta-lactamase (Escherichia coli (strain K12)) (UniProt P00811); assay: qHTS Inhibitors of AmpC Beta-Lactamase (assay with detergent); settings: AmpC hydrolysis of nitrocefin, absorbance 480 nm, 0.01% Triton; activity change, negative = inhibition: at 114 µM (top of the series); also: nearly all actives have a fitted effect of over 25% in size;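 as to activity change, negative = inhibition: 0% = no-compound wells and -100% = no-enzyme wells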
Chain of UniProt P00811 (P00811 whole entry, looked up): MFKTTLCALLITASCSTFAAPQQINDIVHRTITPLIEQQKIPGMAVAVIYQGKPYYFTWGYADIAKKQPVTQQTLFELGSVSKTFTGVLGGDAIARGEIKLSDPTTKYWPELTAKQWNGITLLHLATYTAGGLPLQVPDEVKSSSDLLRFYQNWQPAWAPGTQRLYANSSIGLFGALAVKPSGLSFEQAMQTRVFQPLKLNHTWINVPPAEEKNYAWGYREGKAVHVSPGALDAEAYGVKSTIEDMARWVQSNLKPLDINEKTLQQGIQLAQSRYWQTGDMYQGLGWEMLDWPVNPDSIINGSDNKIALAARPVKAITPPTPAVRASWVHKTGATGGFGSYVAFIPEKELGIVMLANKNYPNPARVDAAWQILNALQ
How it was run: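 AmpC (5.3 nM in the dispensed reagent) in 20 mM phosphate pH 7.0 with 0.01% (detergent screen) or 0.0001% Triton X-100 was preincubated with compounds for 15 min at room temperature. Nitrocefin was then added from an 800 uM solution, and hydrolysis was followed at 480 nm.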
Potency is read from the fitted curve at half-maximal effect; tags tell the direction and shape of the fitted curve.

| SMILES | activity change, negative = inhibition | Potency |
| --- | --- | --- |
| O=C(c1ccc2c(c1)OCO2)N1CCC2(CC1)Oc1ccc(F)cc1C(=O)C21CC(c2cccnc2)=NO1 (stereo not given) | inactive: 2.54% |  |
| CC(=O)c1ccc(N(C(=O)CNC(=O)c2ccco2)C(C(=O)NC2CCCC2)c2cccnc2)cc1 (stereo not given) |  | inconclusive [inhibitor, partial curve, poor fit] |
| CCOc1ccc(CNC(=O)c2nnc(CS(=O)(=O)c3ccccc3)o2)cc1OC |  | inconclusive [inhibitor, partial curve, poor fit] |
| O=C(C[n+]1cc(-c2ccc(F)cc2)n2c1CCC2)Nc1nc(-c2ccccc2)cs1 |  | inconclusive [inhibitor, full curve, poor fit] |
| COc1ccc(COC(=O)Nc2c(SC)nsc2SC)cc1 |  | inconclusive [inhibitor, full curve, poor fit] |
| CCCC(C)NC(=O)C1c2ccccc2Oc2ccccc21 (stereo not given) |  | inconclusive [inhibitor, full curve, poor fit] |
| O=C(Cn1nnc(-c2ccccc2-n2cnnn2)n1)N1CCCCC1 |  | inconclusive [inhibitor, partial curve, poor fit] |
| CCCOc1ccc(C(=O)Nc2ccc(NC(=O)c3ccccc3)c(Br)c2)cc1 | inactive: 16.5% |  |
| O=S(=O)(NCCc1ccccc1)c1ccc(S(=O)(=O)N2CCCCC2)cc1 |  | inconclusive [inhibitor, full curve] |
| CS(=O)(=O)c1ccc(Cl)c(NC(=O)CN2CCCC2c2ccc3c(c2)OCCCO3)c1 (stereo not given) |  | inconclusive [inhibitor, single point] |
| Cc1nn(Cc2ccc(F)cc2)c(C)c1NC(=O)c1nn(C)cc1Cl |  | inconclusive [inhibitor, full curve, poor fit] |
| CN1CCN(C(=S)NC(=O)/C=C/c2cccc3ccccc23)CC1 |  | inconclusive [inhibitor, full curve, poor fit] |
| C=C(C)COc1ccc2c(C)c(C)c(=O)oc2c1OCC(=C)C |  | inconclusive [inhibitor, full curve, poor fit] |
| Clc1ccc(OCc2nnc(SCCN3CCCCC3)n2Cc2ccco2)cc1 |  | inconclusive [inhibitor, single point] |
| CCCN(CCC)S(=O)(=O)c1ccc(NC(=O)C2CCCO2)cc1 (stereo not given) | inactive: -9.13% |  |
| COc1ccc2cc(C(=O)C3CCCN(C(=O)c4cnn(C(C)C)c4)C3)ccc2c1 (stereo not given) | inactive: -12.7% |  |
| COC(=O)C1=C(C)NC(C)=C(C(=O)OC)C1C1CC=CCC1 (stereo not given) |  | inconclusive [inhibitor, full curve] |
| CCOc1cc(C(=O)OCC(=O)NCc2ccco2)cc(OCC)c1OCC |  | inconclusive [inhibitor, partial curve] |
| COc1ccc(CCNC(=O)CNC(=O)c2ccco2)cc1 |  | inconclusive [inhibitor, partial curve] |
| COc1ccc(F)cc1S(=O)(=O)NCC(c1ccco1)N1CCc2ccccc2C1 (stereo not given) |  | inconclusive [inhibitor, full curve, poor fit] |
| COc1ccc(CCNC(=O)Cn2nnc(-c3cccc(OC)c3OC)n2)cc1OC |  | inconclusive [inhibitor, full curve] |
| Cc1ccc(CN2COc3ccc4c(-c5ccccc5)cc(=O)oc4c3C2)cc1 | inactive: 13.4% |  |

| SMILES | activity change, negative = inhibition | Potency |
| --- | --- | --- |
| CSCc1cc(N2CCOCC2)nc(SCc2ccc(Cl)c(Cl)c2)n1 |  | inconclusive [inhibitor, single point] |
| CCOC(=O)C1CCCN(CCC(=O)Nc2cccc(F)c2)C1 (stereo not given) |  | inconclusive [inhibitor, full curve, poor fit] |
| COc1ccc(C2c3[nH]c4ccccc4c3CCN2C(=O)c2ccccc2C(C)=O)c(F)c1 (stereo not given) |  | inconclusive [inhibitor, partial curve] |
| CC(=O)Nc1ccc(Nc2nc(C)c([N+](=O)[O-])c(Nc3ccccc3)n2)cc1 |  | inconclusive [inhibitor, partial curve] |
| Cc1ccc(C(OCC(O)CNC(CO)C(O)c2ccc([N+](=O)[O-])cc2)c2ccccc2)cc1 (stereo not given) |  | inconclusive [inhibitor, single point] |
| CCC(=O)N1CCc2cc(OC)c(OC)cc2C1COc1ccccc1OC (stereo not given) |  | inactive |
| Cc1ccc(S(=O)(=O)Nc2ccccc2C(O)c2ccccc2)cc1 (stereo not given) |  | inconclusive [inhibitor, full curve, poor fit] |
| CCNC(=O)OCC12CC3CC(CC(C3)C1)C2 |  | inconclusive [inhibitor, partial curve, poor fit] |
| O=C(O)CCN1C(=O)c2ccccc2C1=O |  | inconclusive [inhibitor, full curve] |
| CC(=O)N1CCN(Cc2nc3cc(NS(C)(=O)=O)ccc3n2C)CC1 |  | inconclusive [inhibitor, full curve] |
| Cn1c(SCC(=O)Nc2ccc(N3CCOCC3)cc2)nnc1-c1ccccc1 |  | inconclusive [inhibitor, single point] |
| CCCc1cc(C(=O)Nc2cccnc2)no1 | inactive: -3.62% |  |
| CC(C)c1nn2c(=O)cc(COC(=O)c3ccccc3NC(=O)COc3ccccc3)nc2s1 | inactive: -6.39% |  |
| Clc1ccc(OCCn2cnc3ccccc32)cc1 |  | inconclusive [inhibitor, full curve, poor fit] |
| CC1CN(S(=O)(=O)c2ccc(NC(=O)c3cc(-c4ccccc4O)n[nH]3)cc2)CC(C)O1 (stereo not given) |  | inconclusive [inhibitor, partial curve] |
| CCN(C(=O)c1cc2c(C)nc3ccccc3c2o1)c1cc(Cl)ccc1OC | inactive: -4.19% |  |
| CC(C)C(C(=O)NCC1CCCO1)N(Cc1ccccc1)C(=O)CNS(=O)(=O)c1ccccc1 (stereo not given) | inactive: -9.99% |  |
| Cc1ccccc1OCCC(=O)OCC(=O)NC1CCCCC1 |  | inconclusive [inhibitor, partial curve] |
| O=C(Nc1ccccc1)c1nnn(Cc2ccccc2)c1NC(=O)C(F)(F)F |  | inconclusive [inhibitor, full curve] |
| O=C(Nc1cccc(F)c1)C1CCN(C(=O)Cc2ccccc2)CC1 |  | inconclusive [inhibitor, full curve, poor fit] |
| CCOC(=O)C1CCN(C(c2cccc(OC)c2)c2sc3nc(C)nn3c2O)CC1 (stereo not given) |  | inconclusive [inhibitor, full curve] |
| O=C(N/N=C/c1ccco1)C1CCCC1 | inactive: -8.31% |  |

| SMILES | activity change, negative = inhibition | Potency |
| --- | --- | --- |
| COc1ccc(Cl)cc1NC(=O)C/C(C)=N/NC(=O)c1ccccc1[N+](=O)[O-] |  | inconclusive [inhibitor, single point] |
| S=C1SCN(Cc2cccnc2)CN1Cc1cccnc1 |  | inconclusive [inhibitor, full curve, poor fit] |
| CCc1ccc(NC(=O)CCCc2nnc3n(CC(C)C)c(=O)c4sccc4n23)cc1 | inactive: -3.66% |  |
| O=C(NCc1ccco1)C(c1ccccc1)N(Cc1cccnc1)C(=O)Cn1nnc2ccccc21 (stereo not given) |  | inconclusive [inhibitor, full curve] |
| CN1CCN(CCC(=O)Nc2ccc3c(c2)OCO3)CC1 | inactive: 3% |  |
| Cc1cccc(NC(=S)NNC(=O)c2ccccc2Br)c1 |  | inconclusive [inhibitor, single point] |
| C=C(C)COc1ccc2c(C)c(CCC(=O)N3C[C@H]4C[C@@H](C3)c3cccc(=O)n3C4)c(=O)oc2c1 |  | inconclusive [inhibitor, partial curve, poor fit] |
| COc1ccccc1N1CCN(C(c2ccc(Cl)cc2)c2nnnn2C(C)(C)C)CC1 (stereo not given) |  | inconclusive [inhibitor, full curve, poor fit] |
| Cc1ccc2nc(NC(=O)c3cccc(-c4cc5ccccc5oc4=O)c3)sc2c1 | inactive: 0.371% |  |
| CC(C)(C)NC(=O)NC(=O)CSc1n[nH]c(-c2ccccc2Br)n1 |  | inconclusive [inhibitor, full curve, poor fit] |
| O=c1c(Cl)c(Cl)cnn1-c1ccccc1 | inactive: -9.26% |  |
| O=C(c1ccco1)N1CCn2c1nc1ccccc12 |  | inconclusive [inhibitor, partial curve, poor fit] |
| CCCc1c(O)c2ccccc2[nH]c1=O |  | inconclusive [inhibitor, partial curve] |
| COn1c(-c2ccc(Cl)cc2Cl)nc2ncccc21 |  | inconclusive [inhibitor, full curve, poor fit] |
| O=C(Cn1ncc2c(=O)oc3ccccc3c21)N(Cc1ccco1)C1CCCCC1 |  | inconclusive [inhibitor, partial curve, poor fit] |
| Cc1ccc(C(=O)OC(C)C(=O)NC2CCCCC2C)cc1S(=O)(=O)N1CCCCC1 (stereo not given) |  | inconclusive [inhibitor, full curve] |
| COc1ccc(S(=O)(=O)N2CCCC(C(=O)NCc3ccccn3)C2)cc1Cl (stereo not given) |  | inconclusive [inhibitor, full curve, poor fit] |
| CCCOc1cccc(C2c3c(oc4ccccc4c3=O)C(=O)N2c2nncs2)c1 (stereo not given) | inactive: 23.5% |  |
| Cc1cccc(N2CCN(C(=O)C3CCC(=O)N(Cc4ccccc4F)C3)CC2)c1C (stereo not given) |  | inconclusive [inhibitor, full curve, poor fit] |
| COc1ccccc1NCCC(=O)OCC(=O)NC1CCCCCC1 |  | inconclusive [inhibitor, partial curve, poor fit] |
| Cc1ccn(C(=O)c2cc3c(C)nn(-c4ccccc4)c3s2)n1 |  | inconclusive [inhibitor, partial curve] |
